Positions count from the first letter of the chain named. No constants are given. Whether binding was seen depends on the method and setting. Some results given as binding are weak or reduced against the parent protein; the word gives no strength. Sequences can lack the tags named with a protein.
T1: BD-Atg9 (S. cerevisiae) (UniProt Q12142)
T1 sequence: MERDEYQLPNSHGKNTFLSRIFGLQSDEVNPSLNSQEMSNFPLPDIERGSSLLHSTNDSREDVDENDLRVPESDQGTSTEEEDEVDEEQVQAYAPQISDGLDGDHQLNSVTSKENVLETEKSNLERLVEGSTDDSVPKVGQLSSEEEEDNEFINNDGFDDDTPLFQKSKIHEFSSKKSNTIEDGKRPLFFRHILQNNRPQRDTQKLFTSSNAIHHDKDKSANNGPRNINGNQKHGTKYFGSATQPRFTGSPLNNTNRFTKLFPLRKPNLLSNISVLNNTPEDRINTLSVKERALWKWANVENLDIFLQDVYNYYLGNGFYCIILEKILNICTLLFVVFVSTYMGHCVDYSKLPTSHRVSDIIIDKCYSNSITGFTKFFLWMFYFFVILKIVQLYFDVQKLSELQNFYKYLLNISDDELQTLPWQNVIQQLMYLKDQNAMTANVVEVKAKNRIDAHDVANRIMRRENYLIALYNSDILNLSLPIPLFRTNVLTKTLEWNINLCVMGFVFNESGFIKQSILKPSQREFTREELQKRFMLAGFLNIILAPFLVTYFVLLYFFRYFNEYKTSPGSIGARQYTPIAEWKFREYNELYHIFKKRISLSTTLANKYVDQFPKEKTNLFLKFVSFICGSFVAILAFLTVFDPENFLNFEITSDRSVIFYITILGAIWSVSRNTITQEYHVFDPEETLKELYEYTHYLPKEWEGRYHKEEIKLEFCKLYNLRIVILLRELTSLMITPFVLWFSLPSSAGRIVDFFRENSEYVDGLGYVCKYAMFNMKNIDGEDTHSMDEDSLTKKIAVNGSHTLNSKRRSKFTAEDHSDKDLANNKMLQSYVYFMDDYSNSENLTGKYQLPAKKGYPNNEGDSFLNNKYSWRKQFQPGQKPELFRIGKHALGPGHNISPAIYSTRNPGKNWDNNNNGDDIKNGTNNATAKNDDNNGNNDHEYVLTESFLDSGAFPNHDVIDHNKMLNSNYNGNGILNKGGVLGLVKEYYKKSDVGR

B1: AD-atg11 IA3 (protein, UniProt Q12527 1-575; P01094 2-53; Q12527 628-1178)
chain: MADADEYSTAPTQQEITPLQTTATIINAISGECITTNVDFFVSLDKFKQFIARKWKIPPDQLLILLPYGNKLKPSMFKELLINRSFTLNDFYVYDRRLFSLVSKPTPTNLLTSKDSNPMNSPNSNDLTETLEYLIKNSHISQYQGSDTIMIKPMPSPLEDADVDLSRLNYHSVTSLLTTNLGWLSALEIDVHYFKSLIPDIIAHIKRIFDGLTVCSQYLKLYCFDVESLYNSNVQFLNQLVDNGMTSKWEKCFNDTLSKLTALEGDSLQKFINIESLLENEKSVKILNHSINGKLNKIKREIDENASFRDIITVNIDRLRQMFTPNESKFELEDQMAESFEVLVSEMRTRSRNVLDKEEEEFNSQEFLKSMNVMLEKDKKESVKTLFTISQALYSQIGELIDLKKSLQKHAVAILGNIAFTQMEILGIKRLLLNECNKDLELYKKYEVEFAQVEDLPLIYGLYLIEKYRRLSWFQQILSFISNFNQDLELFKQNELRTRNKWVKNFGSIATVFCEDLLSSSDFKRLNEYHSHTSPPNEDEEDENENSIANYRQDLVKVSQAIDNYMTQIKETDVSNTDQQKVSEIFQSSKEKLQGDAKVVSDAFKKMASQDKDGKTTDADESEKHNYGYKTRIKKLESLLHEFQYSDIGHWPQGVLNTHLKPFRGSATSINKKKFLGASVLLEPANISEVNIDSVSQANNHQIQELESNVDDLLHQLQLLKEENNRKSMQISEMGKKISDLEVEKTAYRETLTNLNQELARLTNEEQSHRTEIFTLNASFKKQLNDIISQDNEKIEKLTGDYDDVSKSRERLQMDLDESNKKHEQEVNLLKADIERLGKQIVTSEKSYAETNSSSMEKGEKFETIPLAEDPGRENQISAYTQTLQDRIFDIISTNIFILENIGLLLTFDNNNNIQIRRVKGLKKGTAQSNILDESTQMLDAHDNSLIKSPVFQKLKDEYELIKSVANGSEKDTQQSIFLGNITQLYDNKLYEVAVIRRFKDIETLAKKLTKENKIKRTLLERFQREKVTLRNFQIGDLALFLPTRENVNSVGSMSSSTSSLSSSFSSVDLSTPPPLDAMSIQSSPSVIHSNVINQASISGRDKNKLMRPWAAFTAFEESTRYFLKDEKGLTKGKEWFVGRIVTLEHFVADSPSNNPFRLPKGSVWFQVTAVVVSYQGV
B2: AD-Atg11 (wild type) (protein, UniProt Q12527 1-1178)
chain: MADADEYSTAPTQQEITPLQTTATIINAISGECITTNVDFFVSLDKFKQFIARKWKIPPDQLLILLPYGNKLKPSMFKELLINRSFTLNDFYVYDRRLFSLVSKPTPTNLLTSKDSNPMNSPNSNDLTETLEYLIKNSHISQYQGSDTIMIKPMPSPLEDADVDLSRLNYHSVTSLLTTNLGWLSALEIDVHYFKSLIPDIIAHIKRIFDGLTVCSQYLKLYCFDVESLYNSNVQFLNQLVDNGMTSKWEKCFNDTLSKLTALEGDSLQKFINIESLLENEKSVKILNHSINGKLNKIKREIDENASFRDIITVNIDRLRQMFTPNESKFELEDQMAESFEVLVSEMRTRSRNVLDKEEEEFNSQEFLKSMNVMLEKDKKESVKTLFTISQALYSQIGELIDLKKSLQKHAVAILGNIAFTQMEILGIKRLLLNECNKDLELYKKYEVEFAQVEDLPLIYGLYLIEKYRRLSWFQQILSFISNFNQDLELFKQNELRTRNKWVKNFGSIATVFCEDLLSSSDFKRLNEYHSHTSPPNEDEEDENENSIANYRQDLVKVSQAIDNYMTQIKETDVSEPIIDLLSKTLFETKRFHIIYSNFKNNNNNSSNGNSISPEGSIALKSDDVVKGYKTRIKKLESLLHEFQYSDIGHWPQGVLNTHLKPFRGSATSINKKKFLGASVLLEPANISEVNIDSVSQANNHQIQELESNVDDLLHQLQLLKEENNRKSMQISEMGKKISDLEVEKTAYRETLTNLNQELARLTNEEQSHRTEIFTLNASFKKQLNDIISQDNEKIEKLTGDYDDVSKSRERLQMDLDESNKKHEQEVNLLKADIERLGKQIVTSEKSYAETNSSSMEKGEKFETIPLAEDPGRENQISAYTQTLQDRIFDIISTNIFILENIGLLLTFDNNNNIQIRRVKGLKKGTAQSNILDESTQMLDAHDNSLIKSPVFQKLKDEYELIKSVANGSEKDTQQSIFLGNITQLYDNKLYEVAVIRRFKDIETLAKKLTKENKIKRTLLERFQREKVTLRNFQIGDLALFLPTRENVNSVGSMSSSTSSLSSSFSSVDLSTPPPLDAMSIQSSPSVIHSNVINQASISGRDKNKLMRPWAAFTAFEESTRYFLKDEKGLTKGKEWFVGRIVTLEHFVADSPSNNPFRLPKGSVWFQVTAVVVSYQGV
B3: AD-atg11 YDLL (protein, UniProt Q12527 1-1178)
chain: B2 chain with Y468A, D516A, L517A, L526A
B4: AD-atg11 TV (protein, UniProt Q12527 1-1178)
chain: B2 chain with T511A, V512A
B5: AD-atg11 DLL (protein, UniProt Q12527 1-1178)
chain: B2 chain with D516A, L517A, L526A
B6: AD-atg11 DL (protein, UniProt Q12527 1-1178)
chain: B2 chain with D516A, L517A
B7: AD-atg11 QQ (protein, UniProt Q12527 1-1178)
chain: B2 chain with Q475A, Q476A
B8: AD-atg11 EDLLS (protein, UniProt Q12527 1-1178)
chain: B2 chain with E515A, D516A, L517A, L518A, S519A
B9: AD-atg11 YDL (protein, UniProt Q12527 1-1178)
chain: B2 chain with Y468A, D516A, L517A
B10: AD-atg11 QNLNK (protein, UniProt Q12527 1-1178)
chain: B2 chain with Q493A, N494A, L496A, N500A, K501A
B11: AD-atg11Δ455–535 (protein, UniProt Q12527)
chain: MADADEYSTAPTQQEITPLQTTATIINAISGECITTNVDFFVSLDKFKQFIARKWKIPPDQLLILLPYGNKLKPSMFKELLINRSFTLNDFYVYDRRLFSLVSKPTPTNLLTSKDSNPMNSPNSNDLTETLEYLIKNSHISQYQGSDTIMIKPMPSPLEDADVDLSRLNYHSVTSLLTTNLGWLSALEIDVHYFKSLIPDIIAHIKRIFDGLTVCSQYLKLYCFDVESLYNSNVQFLNQLVDNGMTSKWEKCFNDTLSKLTALEGDSLQKFINIESLLENEKSVKILNHSINGKLNKIKREIDENASFRDIITVNIDRLRQMFTPNESKFELEDQMAESFEVLVSEMRTRSRNVLDKEEEEFNSQEFLKSMNVMLEKDKKESVKTLFTISQALYSQIGELIDLKKSLQKHAVAILGNIAFTQMEILGIKRLLLNECNKDLELYKKYEVEFAQVEPNEDEEDENENSIANYRQDLVKVSQAIDNYMTQIKETDVSEPIIDLLSKTLFETKRFHIIYSNFKNNNNNSSNGNSISPEGSIALKSDDVVKGYKTRIKKLESLLHEFQYSDIGHWPQGVLNTHLKPFRGSATSINKKKFLGASVLLEPANISEVNIDSVSQANNHQIQELESNVDDLLHQLQLLKEENNRKSMQISEMGKKISDLEVEKTAYRETLTNLNQELARLTNEEQSHRTEIFTLNASFKKQLNDIISQDNEKIEKLTGDYDDVSKSRERLQMDLDESNKKHEQEVNLLKADIERLGKQIVTSEKSYAETNSSSMEKGEKFETIPLAEDPGRENQISAYTQTLQDRIFDIISTNIFILENIGLLLTFDNNNNIQIRRVKGLKKGTAQSNILDESTQMLDAHDNSLIKSPVFQKLKDEYELIKSVANGSEKDTQQSIFLGNITQLYDNKLYEVAVIRRFKDIETLAKKLTKENKIKRTLLERFQREKVTLRNFQIGDLALFLPTRENVNSVGSMSSSTSSLSSSFSSVDLSTPPPLDAMSIQSSPSVIHSNVINQASISGRDKNKLMRPWAAFTAFEESTRYFLKDEKGLTKGKEWFVGRIVTLEHFVADSPSNNPFRLPKGSVWFQVTAVVVSYQGV

The binders below were run against T1, BD-Atg9 (S. cerevisiae) (assay: two-hybrid; BD-ATG9 and AD-ATG11 or mutants in multiple-knockout yeast YCY149 (lacking 25 ATG genes); growth on SMD -ura -leu -his with 1.5 mM 3-amino-triazol, 4-5 days at 30°C).

Row | binding | Binder
1 | binds | B1
2 | binds | B2
3 | binds weakly | B3
4 | binds | B4
5 | binds | B5
6 | binds | B6
7 | binds | B7
8 | binds | B8
9 | binds | B9
10 | binds | B10
11 | no binding | B11
